“And” between values parts separate entries of the source, which are not always exact repeats. Identical values can stand only once. Hit rate of the full screen: of about 420,000 compounds, about 50,000 (12%) were called active. Inconclusive means that the source gave no clear call. Such entries were picked first, then a sample of the others. Calls follow the shape of the dose curve; as a rule, active = well fitted inhibition curve with a large enough effect; inconclusive = small, poorly fitted or top-dose-only effect; inactive = flat fitted curve, though single readings scatter. A potency beside an inconclusive call is a rough fit, not a confirmed value.
Assay: qHTS for Inhibitors of human tyrosyl-DNA phosphodiesterase 1 (TDP1): qHTS in cells in presence of CPT; also: nearly all actives have a fitted effect of over 55% in size
Conditions: chicken DT40 Tdp1-/-;hTDP1 cells + 20 nM CPT, ATP luminescence, 48 h; series mostly up to 46.2 µM
Method in brief: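 Chicken DT40 Tdp1-/- cells complemented with human TDP1, 400 cells/well, exposed to compounds plus 20 nM camptothecin for at least 48 h at 37 C; viability read as ATP content by CellTiter-Glo luminescence.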
Potency is read from the fitted curve at half-maximal effect; tags tell the direction and shape of the fitted curve.

| SMILES | Potency |
| --- | --- |
| CNC(=O)c1ccc2nc(-c3ccco3)c(-c3ccco3)nc2c1 | active: 20 µM |
| COc1ccc(-c2cn3c(n2)sc2cc(C(=O)Nc4c(C)cccc4C)ccc23)cc1 | active: 13 µM |
| Cc1ccccc1-n1ncc(C(C)NS(=O)(=O)c2sccc2C)c1C (stereo unspecified) | inconclusive: 20.6 µM [inhibitor, partial curve] |
| CCOC(=O)C1CCCN(C(=O)c2cc(S(=O)(=O)N3CCCCC3)ccc2Cl)C1 (stereo unspecified) | active: 20.6 µM |
| COc1ccc(Nc2nc(Nc3ccc(OC)cc3OC)nc(N3CCN(C)CC3)n2)c(OC)c1 | inconclusive: 18.4 µM [inhibitor, single point] |
| COc1ccc(NC(=O)Cc2ccc(-c3ccccc3)cc2)cn1 | active: 13 µM |
| COc1cc(C(=O)OCc2cc(=O)oc3c(C)c(C)ccc23)ccc1OC(F)F | inconclusive: 25.9 µM [inhibitor, single point] |
| O=S(=O)(c1ccccc1)c1ccc(NCc2ccco2)cc1 | inconclusive: 14.6 µM [inhibitor, partial curve, poor fit] |
| COc1cccc2cc(C(=O)C3=C(O)C(=O)N(Cc4ccco4)C3c3cccnc3)oc12 (stereo unspecified) | inconclusive: 29.1 µM [inhibitor, single point] |
| CCOc1ccccc1N1CCN(C/C=C/c2ccc(N(C)C)cc2)CC1 | inconclusive: 25.9 µM [inhibitor, single point] |
| COc1ccc(/C=C2\SC(=O)N(CCNC(=O)C3CSC4(C)CCC(=O)N34)C2=O)cc1 (stereo unspecified) | inactive |
| CCc1ccc(NC(=O)c2cc3c(COC(C)=O)cnc(C)c3oc2=O)cc1 | inconclusive: 18.4 µM [inhibitor, single point] |
| CCN1C(=O)[C@H]2[C@@H](c3ccc(-c4cccc(Cl)c4)c(OC)c3)N3CCC[C@@]3(C(=O)OC)[C@H]2C1=O | active: 13 µM |
| O=C1/C(=C/c2ccc(N3CCCC3)cc2)NC(=S)N1C1CC1 | active: 16.4 µM |
| CCSc1nnc(NC(=O)c2nc(S(=O)(=O)Cc3ccc(F)cc3)ncc2Cl)s1 | active: 13 µM |
| O=C(NC1CCN(Cc2ccccc2)CC1)C1CCN(c2nnc(-n3cccc3)s2)CC1 | inconclusive: 18.4 µM [inhibitor, single point] |
| CN(C)CC1CCC/C(=C\c2ccc(OC(=O)c3ccc(Cl)cc3)cc2)C1=O (stereo unspecified) | active: 0.517 µM |
| COCCN(CC(=O)Oc1ccccc1P(=O)(OC)OC)Cc1ccccc1 | inactive |
| COc1cccc(-n2c(C)cc(/C=C3\C(=N)N4N=C(CC(=O)N5CCOCC5)SC4=NC3=O)c2C)c1 | inactive |
| Cc1cc(Cl)ccc1NC(=O)CN1CCC(C(O)(c2ccccc2)c2ccccc2)CC1 | inconclusive: 18.4 µM [inhibitor, single point] |
| CCCn1c(/N=C/c2ccccc2O)nc2ccccc21 | inactive |
| Cn1c(SCC(=O)NCc2ccccc2)ncc(C(=O)Nc2ccccc2)c1=O | active: 11.6 µM |

| SMILES | Potency |
| --- | --- |
| COc1ccc(C(=O)n2nc(-c3ccc(Cl)cc3)nc2NCc2ccco2)cc1 | inconclusive: 32.6 µM [inhibitor, single point] |
| O=C(N=Nc1c(O)[nH]c2ccc([N+](=O)[O-])cc12)c1cc(-c2ccccc2Cl)nc2ccccc12 | inconclusive: 23.1 µM [inhibitor, single point] |
| COc1ccc(OCCn2c(N)nc3ccccc32)cc1 | inconclusive: 18.4 µM [inhibitor, single point] |
| Cc1onc(-c2ccccc2)c1C(=O)N/N=C/c1ccc(O)c([N+](=O)[O-])c1 | inactive |
| CCc1nn(C(CC)C(=O)NCC(C)c2ccccc2)c(=O)c2cc3occc3n12 (stereo unspecified) | inconclusive: 20.6 µM [inhibitor, partial curve] |
| COc1ccc2sc(-c3ccccc3OC)c(-c3ccc(OCCN4CCCC4)cc3)c2c1 | inconclusive: 29.1 µM [inhibitor, single point] |
| CCOc1ccc(NC(=O)CSc2ncnc3c2sc2ccccc23)cc1 | inconclusive: 29.1 µM [inhibitor, single point] |
| COc1ccc(NC(=O)Cn2c(=O)oc3cc(Cl)ccc32)c(OC)c1 | inconclusive: 9.2 µM [inhibitor, partial curve] and inconclusive: 23.1 µM [inhibitor, single point] |
| CCOc1ccccc1CN1CCCC(C(=O)c2ccc(OC)c(OC)c2)C1 (stereo unspecified) | inconclusive: 18.4 µM [inhibitor, single point] |
| COc1ccc(CCNC(=O)c2cc3c(=O)n4ccccc4nc3n(CC3CCCO3)c2=N)cc1OC (stereo unspecified) | active: 20.6 µM |
| CC(=O)C[C@@H](O)CC(=O)[C@@H]1OC(=O)CCCCCCCCc2ccccc21 | inconclusive: 20.6 µM [inhibitor, single point] |
| O=C1CSC(=S)N1N=Cc1ccc2c(c1)OCO2 | inconclusive: 23.1 µM [inhibitor, partial curve, poor fit] |
| CCOC(=O)c1c(C)[nH]c(C)c1C(=O)COC(=O)c1cccc(S(=O)(=O)N(CC)CC)c1 | inconclusive: 29.1 µM [inhibitor, single point] |
| CC1CCCCC1NC(=O)C1CCN(S(=O)(=O)c2ccc(-n3cnnn3)cc2)CC1 (stereo unspecified) | inconclusive: 1.64 µM [inhibitor, partial curve, poor fit] |
| O=C1C2CCCN2C(=O)N1CCN1CCN(c2cccc(C(F)(F)F)c2)CC1 (stereo unspecified) | inactive |
| Cc1ccc2c(c1)C(N1CCCC1=O)CC(c1ccco1)N2 (stereo unspecified) | inconclusive: 29.1 µM [inhibitor, single point] |
| O=C(CN1C(=O)S/C(=C\c2ccccc2Cl)C1=O)NC1C=CS(=O)(=O)C1 (stereo unspecified) | inconclusive: 16.4 µM [inhibitor, single point] |
| CCc1ccc(NC(=O)CSc2nc(C)c(C(=O)Nc3ccc(Cl)cc3)c(-c3ccc(OC)cc3)c2C#N)cc1 | inconclusive: 7.31 µM [inhibitor, single point] |
| CC1=C(C(=O)N2CCCCCC2)CC(CC(=O)NC2CCCC2)C(=O)N1CCC1=CCCCC1 (stereo unspecified) | inconclusive: 18.4 µM [inhibitor, single point] |
| COc1ccc(CCNC(=O)c2cc(-c3cc(C)cc(C)c3O)n[nH]2)cc1OC | inconclusive: 29.1 µM [inhibitor, single point] |
| Cc1ccc2cc3cc(C(=O)N4CC(C)CC(C)C4)oc3nc2c1 (stereo unspecified) | inconclusive: 29.1 µM [inhibitor, single point] |
| Cc1cc([N+](=O)[O-])ccc1-c1ccc(C2Nc3ccccc3C(=O)N2O)o1 (stereo unspecified) | active: 23.1 µM |

| SMILES | Potency |
| --- | --- |
| CCOC(=O)C1(Cc2ccccc2)CCN(Cc2cccc(OC)c2O)CC1 | inconclusive: 29.1 µM [inhibitor, single point] |
| O=C(NCCc1ccc(Cl)cc1)c1cc2ccccn2n1 | inconclusive: 29.1 µM [inhibitor, single point] |
| COc1ccc(Nc2nc3cc(-c4ccccc4C)sc3c(=O)n2C)cc1OC | inconclusive: 23.1 µM [inhibitor, single point] |
| Cc1ccc(C)c(NC(=O)CCN2CCN(CCO)CC2)c1 | inactive |
| O=C(CC(=O)c1ccccc1)Nc1cccc([N+](=O)[O-])c1 | inconclusive: 29.1 µM [inhibitor, single point] |
| O=C1/C(=C/c2coc3ccc(O)cc3c2=O)SC(=S)N1c1ccccc1 | inconclusive: 18.4 µM [inhibitor, single point] |
| COc1cccc(C(=O)Nc2nnc(-c3ccc(F)cc3)o2)c1 | active: 10.3 µM |
| COc1ccc2c(CC(=O)Nc3ccc4nc(N5CCOCC5)sc4c3)coc2c1 | inconclusive: 25.9 µM [inhibitor, single point] |
| Cc1ccc(S(=O)(=O)N2CCC(C(=O)Nc3ccccc3N3CCCCC3)CC2)cc1C | active: 18.4 µM |
| COc1ccc(C2CC(c3ccccc3)=NN2C(=O)c2cccs2)cc1 (stereo unspecified) | active: 23.1 µM |
| CCN(CC)CCN(Cc1cc2cc3c(cc2[nH]c1=O)OCCO3)C(=S)NCC(C)C | inconclusive: 29.1 µM [inhibitor, single point] |
| Cc1ccc(C2C(=O)N(C3CCCCCC3)CC(=O)N2C(C)C)cc1 (stereo unspecified) | inconclusive: 23.1 µM [inhibitor, partial curve, poor fit] |
| COc1ccc(C2=Nc3ccccc3N(C(=O)c3ccncc3)C2C(=O)NC(C)C)cc1 (stereo unspecified) | inconclusive: 29.1 µM [inhibitor, single point] |
| O=C(COC(=O)CCc1nc2ccccc2c(=O)[nH]1)Nc1c(Cl)cccc1C(F)(F)F | inactive |
| COC(=O)c1cc(Cl)cc(Cl)c1OS(=O)(=O)N(C)C | inconclusive: 18.4 µM [inhibitor, single point] |
| CCc1c(O)nc(SCc2ccc(F)cc2)[nH]c1=O | inactive |
| COc1ccccc1N(C)S(=O)(=O)c1ccc(Cl)c(C(=O)N2CCC(C(N)=O)CC2)c1 | inactive |
| O=S(=O)(c1ccc(S(=O)(=O)N2CCCC3(CCCCC3)C2)cc1)N1CCCCC1 | inconclusive: 29.1 µM [inhibitor, single point] |
| O=C1CCC(c2ccccc2)c2ccccc21 (stereo unspecified) | inactive |
| COc1cc(CCC(=O)N2CCN(c3ccccc3Cl)CC2)cc(OC)c1OC | active: 11.6 µM |
| CC(=O)NCCCN(Cc1ccc(Cl)c(Cl)c1)c1ccc(Br)cn1 | inconclusive: 35.5 µM [inhibitor, single point] |
| CC(NC(=O)C12CC3CC(CC(C3)C1)C2)C(=O)N/N=C/C1=C(N2CCOCC2)C(=C\c2cccc([N+](=O)[O-])c2)/CC1 (stereo unspecified) | inconclusive: 23.1 µM [inhibitor, single point] |

Source: PubChem BioAssay AID686979 (National Center for Advancing Translational Sciences (NCATS), 2013)
